# Results from a collection of fitness landscapes (doi:10.1016/j.celrep.2020.107928).
# The full ranking holds about 81,000 sequences; the median of “one-hybrid fitness for binding NBS DNA” is about -0.1, and the highest 2% start at about 0.36. Some of the results follow.
# B1: Caulobacter ParB omega fusion; a variant is named by its letters at X, in order, B8GW30 (parent)
# chain: MESVVVGEPGMSEGRRGLGRGLSALLGEVDAAPAQAPGEQLGGSREAPIEILQRNPDQPRRTFREEDLEDLSNSIREKGVLQPILVRPSPDTAGEYQIVAGERAWRAAQRAGLKTVPIMVRELDDLAVLEIGIIENVQRADLNVLEEALSYKVLMEKFERTQENIAQTIGKSXSHVANXMRLLXLPDEVQSYLVSGELTAXHARAIAAAADPVALAKQIIEGGLSVRETEALARKAPNLSAGKSKGGRPPRVKDTDTQALESDLSSVLGLDVSIDHRGSTGTLTITYATLEQLDDLCNRLTRGI
# Variants of: B1
# Test: one-hybrid fitness for binding NBS DNA (the Noc-binding site; scaled: cognate 1, non-cognate 0); higher = stronger binding
# Conditions: with NBS DNA site
# Summary of the method: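 Selection: bacterial one-hybrid in E. coli USO, HIS3 reporter with the site 19 bp from the promoter, 48 hours at 37°C on M9-minus-histidine plus 0.1 mM IPTG and 5 mM 3-AT. Libraries were Caulobacter ParB with four randomised specificity codons, sequenced on Illumina before and after selection. Fitness is the rescaled log change in variant-to-wild-type read ratio, anchored to the cognate and non-cognate sites.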
row,Variant,one-hybrid fitness for binding NBS DNA
1,DLKS,≤ 0.2
2,SRYQ,≤ 0.2
3,MIYT,≤ 0.2
4,YLDY,≤ 0.2
5,HNVA,≤ 0.2
6,QLRH,0.452
7,IDNY,≤ 0.2
8,TYLC,≤ 0.2
9,RLHL,≤ 0.2
10,HQNF,≤ 0.2
11,QRNW,0.326
12,DSFR,≤ 0.2
13,LCCW,≤ 0.2
14,RQCD,≤ 0.2
15,GQCS,≤ 0.2
16,QKSR,0.65
17,SIYG,≤ 0.2
18,EEPL,≤ 0.2
19,NHRV,≤ 0.2
20,RTWT,0.356
21,ILWC,≤ 0.2
22,QSMQ,≤ 0.2
23,APQD,≤ 0.2
24,AHKA,≤ 0.2
25,PKKG,≤ 0.2
26,WFVG,≤ 0.2

row,Variant,one-hybrid fitness for binding NBS DNA
1,DPCI,≤ 0.2
2,LRCG,≤ 0.2
3,TSEG,≤ 0.2
4,ITTD,≤ 0.2
5,FHYG,≤ 0.2
6,TQDN,≤ 0.2
7,PNIN,≤ 0.2
8,RNDV,≤ 0.2
9,VFAS,≤ 0.2
10,NGFG,≤ 0.2
11,QKKL,0.213
12,GAYF,≤ 0.2
13,VADV,≤ 0.2
14,RENC,≤ 0.2
15,RKLF,≤ 0.2
16,RSQF,≤ 0.2
17,PSYV,≤ 0.2
18,HFSG,≤ 0.2
19,PEQC,≤ 0.2
20,QGPT,≤ 0.2
21,CNGC,≤ 0.2
22,VYET,≤ 0.2
23,CVNG,≤ 0.2
24,GYPR,≤ 0.2
25,YSQT,≤ 0.2
26,GVCG,≤ 0.2

row,Variant,one-hybrid fitness for binding NBS DNA
1,TNHE,≤ 0.2
2,TTQY,≤ 0.2
3,QTRN,0.543
4,LSRG,≤ 0.2
5,VLEN,≤ 0.2
6,IRRG,0.242
7,DQIF,≤ 0.2
8,RGYG,≤ 0.2
9,HCHR,≤ 0.2
10,SDVA,≤ 0.2
11,GKYW,≤ 0.2
12,RLLC,≤ 0.2
13,PAGW,≤ 0.2
14,SDNE,≤ 0.2
15,ALTV,≤ 0.2
16,LFWP,≤ 0.2
17,AVQS,≤ 0.2
18,PWRN,≤ 0.2
19,AVSK,≤ 0.2
20,RDTS,≤ 0.2
21,NNSV,≤ 0.2
22,HPSI,≤ 0.2
23,KRYT,0.613
24,MVLK,≤ 0.2
25,PWKW,≤ 0.2
26,QSGA,0.291

row,Variant,one-hybrid fitness for binding NBS DNA
1,SEGR,≤ 0.2
2,LRKK,≤ 0.2
3,RYWC,≤ 0.2
4,QLED,≤ 0.2
5,MYPM,≤ 0.2
6,VNRD,≤ 0.2
7,PAMV,≤ 0.2
8,PWMW,≤ 0.2
9,VTRH,≤ 0.2
10,DDTR,≤ 0.2
11,FVPC,≤ 0.2
12,CGYS,≤ 0.2
13,DPAK,≤ 0.2
14,DPQT,≤ 0.2
15,FAGD,≤ 0.2
16,VNQW,≤ 0.2
17,VPLI,≤ 0.2
18,PGNP,≤ 0.2
19,RVNC,≤ 0.2
20,SVCE,≤ 0.2
21,ENPQ,≤ 0.2
22,QIFV,≤ 0.2
23,EPGI,≤ 0.2
24,HYQS,≤ 0.2
25,SMRF,≤ 0.2
26,IHKY,≤ 0.2

row,Variant,one-hybrid fitness for binding NBS DNA
1,PPCE,≤ 0.2
2,QEGF,≤ 0.2
3,RTEI,≤ 0.2
4,VEMR,≤ 0.2
5,RQPV,≤ 0.2
6,AHSN,≤ 0.2
7,VDCA,≤ 0.2
8,ANRP,≤ 0.2
9,NHGT,≤ 0.2
10,MSAR,≤ 0.2
11,EVMS,≤ 0.2
12,DNKF,≤ 0.2
13,CLQW,≤ 0.2
14,RVYK,≤ 0.2
15,HVNC,≤ 0.2
16,WADV,≤ 0.2
17,LHSC,≤ 0.2
18,ECAY,≤ 0.2
19,WRIG,≤ 0.2
20,LNTM,≤ 0.2
21,AHCL,≤ 0.2
22,PSHQ,≤ 0.2
23,EPAG,≤ 0.2
24,QKGV,≤ 0.2
25,WESY,≤ 0.2
26,SGVL,≤ 0.2

row,Variant,one-hybrid fitness for binding NBS DNA
1,PKMM,≤ 0.2
2,MRRE,≤ 0.2
3,VRQT,≤ 0.2
4,ASAK,≤ 0.2
5,LDAA,≤ 0.2
6,CLLD,≤ 0.2
7,LPEA,≤ 0.2
8,DPRT,≤ 0.2
9,QMAH,0.231
10,WAQG,≤ 0.2
11,RTHR,0.631
12,ERWT,≤ 0.2
13,WMEK,≤ 0.2
14,YPWN,≤ 0.2
15,RVSK,≤ 0.2
16,PWAD,≤ 0.2
17,WMPF,≤ 0.2
18,PVNK,≤ 0.2
19,TPRM,≤ 0.2
20,FYGG,≤ 0.2
21,GAHS,≤ 0.2
22,CAHT,≤ 0.2
23,RHWN,≤ 0.2
